The source gives no read counts; variants with many changes may rest on few reads.
B1: LINE1-full (parent)
chain: UACGUAGGUGGUUUUCCCCUGAUAGUGCUAAGGGGGCCUGGAAGUUUGGACUGGGCAGAGCUCAACACAGCGUGGCAAAGUGGCUGUGGCUAGACUGCCUCUCUGGAUUCCUCGUCACUCAGCAGGGCAUCUCUGAGAGAAAUGCC

Variants of: B1
Test: self-cleavage, relative activity (ratio to wild type); higher = more cleavage; in vitro, sequencing; the parent is a self-cleaving ribozyme

| Variant | self-cleavage |
| --- | --- |
| C19U G32A U102C | 0.92 |
| U20C A124G A138G | 0 |
| C19U U104C C110G | 0.9 |
| U20A U85C A141U | 0.27 |
| C19U G48A A59G C71U | 0.08 |
| C19U A50U A67G | 0.18 |
| U20C A57U U96C G126A | 0.03 |
| U20C U26A U45C U47A A64U A136G | 0.35 |
| U20C U45A A136G | 1 |
| U20A U45C U46C | 1.24 |
| C19U U134C A140U | 1.84 |
| U20C G32C U45C G88A | 0.06 |
| U20C A107G A136G | 1.2 |
| U20C U47C A77G | 1.06 |
| U20A U46C A64G | 0.22 |
| C16U U62C U119A | 0.03 |
| C18U U52A U73A | 1.29 |
| C16U G35U U62A | 0.03 |
| U20A A50U U134C | 1.26 |
| C19U U46C U73A | 1.7 |
| C19U A50G U102C | 1.15 |
| U20C U39A U109C A140U A142G | 2.51 |
| U20A A42G U81G | 1.73 |
| U20C U46C U73A | 1.51 |

| Variant | self-cleavage |
| --- | --- |
| U20A A57U U81C U134C | 0 |
| U20C G114A A121G A129G | 1.23 |
| C19U U100A A142G | 0.55 |
| C17A U46C A142G | 0.71 |
| U20C G27U A69U U130A | 0.07 |
| C19U A117G A121U A140G | 1.12 |
| U20C G21A U109C C113A | 1.58 |
| U20C G34A U39A U143C | 1 |
| U20C A64G U112C | 0.16 |
| U20A U104C G105A A124G | 1.71 |
| U20C A22U U96A | 0.06 |
| U20A U62C A64C U134C | 0.06 |
| U20A U81G A136U | 1 |
| C19U U45C A50G A78G | 0.97 |
| U20C A59G A67U U112C U134C | 0 |
| C19A A129G A142G | 0.8 |
| U20A U52A A140U | 1.09 |
| U20C A42G U96C | 0.18 |
| U20C A22G G32C A57G | 2.04 |
| U20C A42G A43G U102C | 2.12 |
| U20C U47A A129U | 1.58 |
| C19U A42U U87C C113U | 0.03 |
| U20A A59G U112C A140G | 0.13 |
| C17U A22G U23C A67G A140U | 1.75 |

| Variant | self-cleavage |
| --- | --- |
| U20C U39A A59G A124G | 0.16 |
| U20A A42G U87C C99U A141G | 0.29 |
| U15G U20C A117G A141C | 1.31 |
| C18U U23C U81A | 1.28 |
| U20C A30U C37A A64U U91A A107G | 0 |
| U20A U23C A64G U143A | 0.34 |
| U20A A22U A43G U112C | 0.7 |
| C16A A129U A142G | 1.12 |
| U20A U52A U100C U119A U143A | 1.91 |
| U20A A79U A117G | 1.98 |
| C19U G75C G114A U115A | 0.58 |
| U20A G21A A67G U81A | 0.46 |
| C19U U62C A69G | 0.05 |
| U20A G127A G135A | 1.9 |
| C19U A57G A65G | 0.35 |
| U20C G34A U119A | 1.67 |
| U20C U26C A67G A79G A138G | 0 |
| U20C A22U G125A A138U | 1.77 |
| U20C A107G A138G | 1.53 |
| C16U U45A A94G A136G | 0.34 |
| U20C G49U C84U U85A U87C A124G | 0.03 |
| U20A A64U U85A U87C U96A A129G | 0 |
| U20C U39A C111U U132C | 1.74 |
| C19U A50G A142G | 0.86 |

| Variant | self-cleavage |
| --- | --- |
| U20A G40A U47C A67G | 0.09 |
| U20A U47C A65G A142G | 0.13 |
| U20A U85G A107G | 0.31 |
| C19U U87C U115A | 0.07 |
| U20C C71U U115C | 1.15 |
| C16A U45A A57G A59G C90U U100A | 0.14 |
| U20C G60A A77G | 0.1 |
| C19U U109C U112C | 1.11 |
| C17U A42G U112C | 1.05 |
| C17U A59G U85C U132A | 0 |
| U20A U39A A78G | 1.02 |
| U20A G44A A67G U108C A129G | 0 |
| C19A A50G U81A | 0.93 |
| U20A U73C G114A | 2.13 |
| U20C U26G U39A | 1.99 |
| C16A U29C A77U | 0.91 |
| U15G U112A U143C | 0.77 |
| C19U A64G A77G | 0.15 |
| U20C A64G U73C | 0 |
| C19U A31U G41A U62C A129U | 0.07 |
| U15G A107U A129G | 1.12 |
| U20A G40A U130A A140U | 1 |
| U20A G54A A94G A141G | 0.05 |
| U20C U26C U73A | 1.34 |

| Variant | self-cleavage |
| --- | --- |
| C19U U62C U119C | 0.02 |
| C19U A31U U39C | 0.64 |
| U20C G32A G49A | 0.45 |
| U20A G33A A136U | 1.01 |
| C19U A65G U91A | 0.05 |
| U20C A24U A50C | 1.23 |
| U20C A65G U96C A138G A142U | 0 |
| U20A A65G G89A A142G | 0.03 |
| U20C A22U C61G A78G A107G | 0.11 |
| C19U G60U U87C | 0.04 |
| U20C G21A U87G | 0.13 |
| U20C A42U U115A | 0.82 |
| C17U C18U U26C A30U A78G A140G A142G | 0.35 |
| U20C U23C U119C | 1.84 |
| U20C U39A A77G C98U U115A A138G A141G | 0.36 |
| C18A A43G C101U | 0.54 |
| C16U U29C A142G | 1.5 |
| U20A A67G U130C | 0.43 |
| U20A A77G G88A C99A U134C | 0.08 |
| U20A U47C A64G C95U A117U | 0 |
| U20C U39C G137A | 1.94 |
| U20C A24U U26A A43U G80A | 1.21 |
| C19U A136U A142G | 1.41 |
| U20A U62A G114A | 0.04 |

| Variant | self-cleavage |
| --- | --- |
| C18U A65G U108C | 0 |
| C19U U52C G86A A92U | 0 |
| U20C G33A A64G U87C | 0.27 |
| C19U G35A U47A A142G | 1.01 |
| U20A A50U A94G A141G G144A | 0.14 |
| C19U A30U C51U A59G | 0.2 |
| C17U G58U A124G | 0.02 |
| U20C U39A U45C A59G | 0 |
| U20C U26C G44A U81C | 0.17 |
| U20C U47A A79G U112C A121G U143A | 1.02 |
| C16A U96A C120U C128U | 0.09 |
| U20A U62C G93A | 0.03 |
| C19U A59U A142G | 0.77 |
| C16U U20C U132C A142U | 0.98 |
| C16U U20C A42G A43G U102A A140G U143C | 1.31 |
| C18A A79G U115C | 1.26 |
| U20C A42G A57G | 2.78 |
| U20A A43G U104C C131U G137A | 1.51 |
| C19A A77G U85C | 0.17 |
| C16U U47A U130C | 1.84 |
| C19U U20G A43U U96C | 0.26 |
| C17U U52C U62A U104A | 0.1 |
| U20C A65G U115A | 0 |
| U20A A42G A141G | 1.31 |

| Variant | self-cleavage |
| --- | --- |
| C19U U29A G70A A121U | 0.18 |
| C17A A79G G114A | 1.02 |
| U20A A30G U85C | 0.95 |
| C19A U102G C120U C128A A142G | 0.85 |
| C17A U23A A50G A121U A136U | 1.53 |
| C18U U26A G58A G72U | 0.06 |
| U20A C61U A141G | 0.05 |
| U20C G27A U104C | 0.98 |
| U20C A24U A64U A69G U100C U143C | 1.35 |
| C16U U62C U85A | 0.02 |
| U20C A22G A57U U81C C95U | 0.11 |
| U20C U26A A30G A142G | 0.42 |
| C16U A67G A121C | 0.82 |
| C19U U26C A79G | 0.88 |
| U20A C37U U45C U130C | 1.46 |
| U20C A64U U96C U102C G144A | 0.4 |
| U20A A64U U96C U130C | 0.02 |
| U20C A22G G105A A107U | 0.53 |
| U20C G54A U130A | 0.46 |
| C17U A67C A77U | 0.25 |
| U20A U81A U102C C118G | 1.01 |
| U20C G54A A136G | 1.03 |
| U20C C71U A138G | 0.25 |
